Consider two substances from PMC1479330.

Chains of the proteins cited; added tags and fusions are not shown.
UniProt P63208: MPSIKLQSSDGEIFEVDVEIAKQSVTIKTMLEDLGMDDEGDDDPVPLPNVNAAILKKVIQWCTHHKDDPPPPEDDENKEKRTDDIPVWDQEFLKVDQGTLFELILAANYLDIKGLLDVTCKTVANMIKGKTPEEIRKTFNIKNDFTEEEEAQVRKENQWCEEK

Assay [1] has as its target alpha 6 subunit of the 20S proteasome (human (endogenous in HeLa and 293T)) (UniProt P25786). The assay can be described thus: co-IP; HeLa cell lysate immunoprecipitated with monoclonal antibodies to the alpha 6, alpha 2 or alpha 4 subunit of the 20S proteasome; immunoblot. For orientation: Immunoblotting shows a protein as a band on a membrane.
The target of assay [2] is FLAG-tagged full-length Cul1 (aa 1-776) (UniProt Q13616). The experiment in a line: co-IP; 293T cells transfected with FLAG-tagged Cul1 or deletion mutants; extracts immunoprecipitated with an antibody to the FLAG epitope; immunoblot.
The target of assay [3] is FLAG-tagged Cul1 (aa 324-776) (UniProt Q13616). Described as above.
Assay [4] deals with FLAG-tagged Cul1 (aa 1-300) (UniProt Q13616). The description is as above.
Assay [5] addresses FLAG-tagged Cul1 (aa 1-645) (UniProt Q13616). The assay is described as above.
Assay [6] deals with FLAG-tagged Cul1 (aa 1-452) (UniProt Q13616). The description is as above.

No constants are given. Whether binding was seen depends on the method and setting. In cells and extracts the contact can be indirect. Some binding calls cover weakened binding; strength is not graded here.

Consider Skp1 (from UniProt P63208 1-163), for which, in assay [1], the binding entry is recorded as “binds”.

With “alpha 6 subunit of the 20S proteasome (from UniProt P25786 1-263)”, the binding result is listed as “binds” in assay [2]; “no binding” in assay [3]; “binds” in assay [4]; “binds” in assay [5]; “binds” in assay [6].
